In the RNAGym collection of RNA variant scans (doi:10.1093/nar/gkz1192) one finds self-cleavage data, which are given here for 34 variants.

Read counts are not given, so values of variants with three or more changes are uncertain.

To fix the notation:
B1: CPEB3 Ribozyme (parent)
chain: UAACAGGGGGCCACAGCAGAAGCGUUCACGUCGCAGCCCCUGUCAGAUUCUGGUGAAUCUGCGAAUUCUGCUGUAUAUCUC

In the data set the parent is B1. Put plainly: self-cleavage, relative activity (ratio to wild type); higher = more cleavage; in vitro, sequencing. Summed up: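 CPEB3 self-cleaving ribozyme mutant libraries were made by rounds of error-prone PCR, barcoded, and transcribed in vitro with T7 RNA polymerase for 5 hours at 37°C. Cleavage occurred during transcription and a 15 min DNase I step before EDTA stop. RNAs were reverse transcribed with template switching and Illumina-sequenced, with DNA sequencing mapping barcodes to variants. Relative activity is the variant's cleaved/total read fraction divided by wild type's (minimum 5 reads), averaged across three batches.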
In the case of UAGCAGGGGGCCACAGCAGAAGCGUUCACGUCACAGCCCCUGUCAGAUUCUGGUGAGUCUGCGAGUUCUGCUGUAUAUCUC [A3G G33A A57G A65G], the self-cleavage worked out at 0.21. For UAGCAGGGGGCCACAGCAGAAGCGUUCACGUCGCACCCCCUGUCAGAUUCUGGUGAAUCUGCGAAUUCAGCUGUAUAUCUC [A3G G36C U69A], the self-cleavage stood at 0.31. As for UAGCAGGGGGCCACAGCAUAAGCGUUCACGUCGCAGCCCCUGUCAGAUUCAGGUGAAUCUGCGAAUUCGGCUGUAUAUCUC [A3G G19U U51A U69G], the self-cleavage is 0.29. In the case of UAGCAGGGGGCCACAGCAGAAGCAUUCACGUCGCAGCCCCUGUCAGAUUCUGGUUUACCUGCGAAUUCUGCUGCAUAUCAC [A3G G24A G55U A56U U58C U74C U80A], the self-cleavage turned out to be 0.29. For UAGCAGGGGGCCACAGCACAAGCGUUCACGUCGCAGCCCCUGUCAGAUUCUGGUCAAUCUGCGGAUUCUGCUGUAUAUCUC [A3G G19C G55C A64G], the self-cleavage is 0.29. With UAGCAGGGGCCCACUGCAGAAGCGUUCACGUCGCAGCCCCUGUCAGAUUCUGGAGAAUCUGCGAAUUCUGCUGUAUAUCUC [A3G G10C A15U U54A], the self-cleavage is 0.08. Next, UAGCAGGGGGCCACAGCAGAAGCGUUCACGUCGCAACGCCUGUCUGAUUCUGGUGUGUCUGCGAAUUCUGCCGUAUAUCUC [A3G G36A C38G A45U A56U A57G U72C]: 0.11; UAGCAGGGGGCCACAUCAGAAGCGUUCGCGUCGCAGCCCCUGUCAGAUUCUGGUGAAUCUGCGAAUUCUGCUGUAUAUCUC [A3G G16U A28G]: 0.19.

Consider UAGCAGGGGGCCACAGCAGAAGCGUUCACGUCACAGCCCCUGUCAGAUUCUGGUGAAUCUGCGAAUUCUGGUGUAUAUCUC [A3G G33A C71G], for which the self-cleavage worked out at 0.06. In the case of UAGCAGGGGGCCACAUCAGAAGCGUUCGCGUCGCAGCCCCUGUCUGAUUCUGGUGAAUCUGCGAGUUCUGGUGUAUAUCUC [A3G G16U A28G A45U A65G C71G], the self-cleavage came to 0.08. UAGCAGGGGGCCACAGCAGAAGCGUUCACGUCGCAGCCCCUAUCAGAUUCUGGUGAAUGUGCGAAUUCUGCCGUAUAUCUC [A3G G42A C59G U72C]: the self-cleavage amounted to 0.3. With UAGCAGGGGGCCACAGCAGAAGCUUUCACGUCGCGGCCCCUGUCAGAUUCUGGUGAAUCUGCGAAUUCUGCUGUAUAUCUC [A3G G24U A35G], the self-cleavage was determined as 0.64. In the case of UAGCAGGGGGCCACAGCAGAAGCGUUCACAUCGCAGCCCCUGUCAGAUUCUGGUGAAACUGCGAAUUCUGCUGUAUACCUC [A3G G30A U58A U78C], the self-cleavage worked out at 0.2. UAGCAGGGGGCCACAGCAGAAGCGUUCACGUCACAGCCCCUGUCAGAUUCUGGUGAAUCUGCGAAUUCUGUUGUAUACCUC [A3G G33A C71U U78C]: the self-cleavage is 0.1. To UAGCAGGGGACCACAGCAGAAGCGUUCACGUCGCAUCCCCUGUCAGAUUCUGGUGAAUCCACCAAUUCUGCCGUAUAUCUC [A3G G10A G36U U60C G61A G63C U72C] belongs 0.09; to UAGCAGGGGGCCACAGCAUAAGCGUUCACGUCCCAGCCCCUGUCAGAUUCUGGUGAAUCUGCGAAUCCUGCCGUAUAUCUC [A3G G19U G33C U67C U72C], 0.09; to UAGCAGGGGGCCACAACAGAAGCGUUCACGUCGCAGCCCCAGUCAGAUUCUGGUGAGUCUGCGGAUUCUGCUGUAUAUCUC [A3G G16A U41A A57G A64G], 0.4.

Consider UAGCAGGGGUCCACAGCAGAAGCGUUCACGUCGCAGCCCCGGUCUGACUCUGGUGAAUCAGCGAAUUCUGCUGUAUAUCCC [A3G G10U U41G A45U U48C U60A U80C], for which the self-cleavage came to 0.06. To UAGCAGGGGGCCACAGCACAAACGUUCACGUCGCAGCCCGUGUCAGAUUCUGGUGAAUCUGCGAAUUCUGCUGUAUGUCUC [A3G G19C G22A C40G A77G] belongs 0.18; to UAGCAGGGGGCCACAGCAGAAGCAUUCACGUCGCAGCCCCCGUCGGAUUCUGGUGAAUCUGCGAAUUCAGCUGUAUAUCUC [A3G G24A U41C A45G U69A], 0.09. In the case of UAGCAGGGGGCCACAGCAGAAGCAUUCACGUCGCAGCCCCUGUCGGAUUCUGGUGAAUCUGCGAAUUCUGCUGUAAAUCUC [A3G G24A A45G U76A], the self-cleavage stood at 0.1. Consider UAGCAGGGGGCCACAGCAGAAGCUUUCACGUCGCAGCCCUUGUCAGAUUCUGGUGAAUCUGCGAAUUCUGCUGUAUAUCUC [A3G G24U C40U], for which the self-cleavage was 0.12. To UAGCAGGGUGCCACAGCAGAAGCGUCCACGUCGCAGCCCCUGACAGAUUCUGGCGAAUCCGCGAAUUCUGCUGUAUAUCUC [A3G G9U U26C U43A U54C U60C] belongs 0.08. Next, UAGCAGGGGACCACAGCAGAGGCGCUCUCGUCGCAGCCCCUGUCAGAUUCUGGUGAACCUGCGAAUUCAGCUGUAUAUCUC [A3G G10A A21G U25C A28U U58C U69A]: 0.22; UAGCAGGGGGCCACAGCAGAAACGCUCACGUCGCAGCCCCUGUCAGAUUCUGGUGAAUCUGUGAAUUCUGCUGAAUAUCUC [A3G G22A U25C C62U U74A]: 0.37; UAGCAGGGGGCCACAGCAGAAGCGUUCACGUCGCAGCCCCUAUCAGAUUCCGGUGAACCUGCGAAUUCUGCUGUAUAUCUC [A3G G42A U51C U58C]: 0.14. Next, UAGCAGGGGCCCACUGCAGGAGCGUUCACGUCGCAGCCCCUGUCAGAUUCUGGUGAAUCUGCGAAUUCUGCUGUAUAUCUC [A3G G10C A15U A20G]: 0.45; UAGCAGGGGACCACAGCAGGAGCGUUCACGUCGCAGCCCCUGUCAGAUUCUCGUGAUUCUGCGAAUUCUGCUGUAUAUCUC [A3G G10A A20G G52C A57U]: 0.06.

As for UAGCAGGGGGCCACAGCAGAAGCGUUCACGUCGCAGCCCCUAUCAGAUUCUGGUGAAUCUGCGAAUUCUGCUGUGUAUCUC [A3G G42A A75G], the self-cleavage amounted to 0.12. Consider UAGCAGGGGACCACAGCAGAGGCGUUCACGUCGCAGCCCCUGUCAGGUUCUGGUGAAUCUGCGAAUUCUGCUGUAUAUCUC [A3G G10A A21G A47G], for which the self-cleavage amounted to 0.44. As for UAGCAGGGGGCCACAGCAGAAGCGUUCACAUCGCAGGCCCUGUCAGAUUCUGGUGAAUCUGCGAAUUCUGCUGUAUAUCUC [A3G G30A C37G], the self-cleavage was 0.67. For the variant UAGCAGGGGGCCACAGCAGAAGCGUUCACGUCGCAUCCCCUGUCAGAUUCUGGUGUAUCUGCGGAUUCUGCUGUAUAUCUC [A3G G36U A56U A64G], the self-cleavage came to 0.12. With UAGCAGGGGGCCACAGCAGAAGCGUUCACGUCGCAGCCCCUGUCAGAUUCUCGUGAAUCUGCGAGUUCUGCUGUAUCUCUC [A3G G52C A65G A77C], the self-cleavage stood at 0.43. In the case of UAGCAGGGGGCCACAGCAGAAACGCUCACGUCGCAGCCCCUGUCAGAUUCUGGUGAAUCUGCGAAUUCUGCUGUAUAUCUC [A3G G22A U25C], the self-cleavage stood at 0.16.
